# Results published in PubChem BioAssay (NCATS).
# Where “and” joins values, the source holds several entries; their conditions need not be identical. Identical values can stand only once. The list shows a part of the results. The main result of the screen is listed elsewhere. These columns were measured beside it and carry no call. Most of these compounds were active or inconclusive in the main read-out, so they are no random draw. Words in brackets tell the shape of the fitted curve; partial curves, single points and poor fits give uncertain potencies.
# Test: qHTS Assay for Lipid Storage Modulators (AID 1519)
# Details: Drosophila S3 cells, BODIPY lipid droplet/cell ratio, laser cytometry, cells loaded with oleic acid
# Outline: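 Cells seeded at 5,000 per well were treated with compounds over a concentration series and loaded with oleic acid (400 uM, as added). Lipid droplet fluorescence (488 nm excitation, 500-530 nm channel) was read by laser-scanning cytometry and normalized to 20 uM Triacsin C.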
# [1] = measured here: cell count channel max response
# [2] = measured here: cell number channel AC50
# [3] = measured here: lipid (BODIPY) channel AC50
# [4] = measured here: lipid channel max response
# Tags give direction and shape of the fitted curve.
SMILES,max response [1],AC50 [2],AC50 [3],max response [4]
COc1cccc2oc(-c3ccccc3)cc(=O)c12,109%,"8.91 µM [rising, partial curve]","5.01 µM [rising, partial curve]",139%
COc1ccccc1CC(Cc1nc2ccccc2[nH]1)c1nc2ccccc2[nH]1 (stereo not drawn),99.9%,"3.55 µM [rising, full curve]","4.47 µM [rising, partial curve]",132%
CCCCCCN(CCCCCC)C(=O)Cc1c(-c2ccc(Cl)cc2)[nH]c2ccc(Cl)cc12,83.7%,"12.6 µM [rising, partial curve]","12.6 µM [rising, partial curve]",115%
Cc1ccc2oc(-c3ccccc3)c(O)c(=O)c2c1,78.8%,"15.8 µM [rising, partial curve]","15.8 µM [rising, partial curve]",102%
COc1ncc2ncc(=O)n(Cc3ccc(F)cc3)c2n1,23.4%,"0.00562 µM [rising, full curve, poor fit]","0.00562 µM [rising, full curve, poor fit]",32.5%
c1cn(-c2cc(-c3ccc4c(c3)OCO4)ncn2)cn1,18.1%,"1.58 µM [rising, full curve, poor fit]","2 µM [rising, partial curve, poor fit]",24.6%
COc1ncc2nc(-c3ccc(F)cc3)c(=O)n(C[C@H]3CCCO3)c2n1,23.1%,"3.55 µM [rising, partial curve, poor fit]","3.16 µM [rising, partial curve]",29.1%
O=c1cnc2cnc(N3CCNCC3)nc2n1CCc1ccccc1,39.2%,"0.00501 µM [rising, full curve, poor fit]","3.55 µM [rising, full curve, poor fit]",49.5%
COc1cccc(Cn2c(=O)c(-c3cn(C)c4ccccc34)nc3cnc(OC)nc32)c1,32.6%,"8.91 µM [rising, partial curve, poor fit]","5.62 µM [rising, partial curve, poor fit]",42.3%
COc1cccc(Cn2c(=O)c(-c3ccc(Cl)cc3)nc3cnc(N4CCN(C)CC4)nc32)c1,-15.6%,"1.78 µM [rising, single point]","1.78 µM [rising, partial curve]",-19%
CC(C)OC(=O)c1cc2c(OC[C@@H](O)CNC(C)(C)C)cccc2[nH]1,44.5%,"28.2 µM [rising, partial curve, poor fit]","31.6 µM [rising, partial curve, poor fit]",53.6%
CN(C)c1ncc2nc(-c3ccc(F)cc3)c(=O)n(CCc3ccccc3)c2n1,40.9%,"0.794 µM [rising, full curve]","0.562 µM [rising, full curve]",49.4%
COc1ccc(CNc2nc(-c3ccc4c(c3)OCO4)nc3ccccc23)c(OC)c1,28.5%,"0.0794 µM [rising, full curve]","0.0708 µM [rising, full curve, poor fit]",35.4%
CCCCNC(=O)[C@@H]1Cc2ccccc2N1C(=O)[C@H](N)CC,86%,"15.8 µM [rising, partial curve, poor fit]","39.8 µM [rising, partial curve, poor fit]",115%
COc1ccccc1-c1nc(NCc2cccs2)c2ccccc2n1,15%,"0.708 µM [rising, full curve]","0.447 µM [rising, full curve]",13.7%
O=c1cc(-c2ccccc2O)oc2cc(O)cc(O)c12,29.6%,"5.62 µM [rising, full curve, poor fit]","5.62 µM [rising, full curve, poor fit]",36%
COc1ccc(/C=C/C(=O)c2cccs2)cc1OC,54.9%,"2.51 µM [rising, full curve]","2.82 µM [rising, full curve]",70.1%
COc1cccc(-c2nc(NCc3ccccc3OC)c3ccccc3n2)c1,33.4%,"0.0355 µM [rising, full curve]","0.0355 µM [rising, full curve]",42%
C[C@@](Cc1ccccc1)(NC(=O)CN)c1ccccc1,73.8%,"25.1 µM [rising, partial curve]","25.1 µM [rising, partial curve]",97.7%
COc1cc(OC)c2cc(-c3ccncc3)cnc2c1,94.2%,"0.891 µM [rising, full curve]","0.891 µM [rising, full curve]",125%
COc1ccccc1-c1nc(NCCc2cnc[nH]2)c2ccccc2n1,34.7%,"2.82 µM [rising, full curve, poor fit]","2.24 µM [rising, full curve, poor fit]",41.9%

SMILES,max response [1],AC50 [2],AC50 [3],max response [4]
CN(C)C(=O)c1ccc(-c2cncnc2NCc2cccnc2)cc1,36.8%,"3.16 µM [rising, full curve]","3.55 µM [rising, full curve]",47.4%
COc1ccc(Oc2ncc3ncc(=O)n(CCc4ccccc4)c3n2)cc1,23.8%,"0.447 µM [rising, full curve, poor fit]","0.447 µM [rising, full curve, poor fit]",27.8%
CC(=O)NCCNc1ncnc2ccc(-c3ccccc3C(F)(F)F)cc12,-5.08%,"3.98 µM [rising, single point]","3.98 µM [rising, single point]",-7.75%
COCCn1c(=O)cnc2cnc(N3CCNCC3)nc21,18.3%,"5.01 µM [rising, single point]","5.62 µM [rising, single point]",28.2%
COCCn1c(=O)c(-c2ccc(OC)cc2)nc2cnc(Nc3cccc(OC)c3)nc21,34.3%,"2.82 µM [rising, full curve, poor fit]","1.26 µM [rising, partial curve, poor fit]",17.4%
CNc1ccnc(-c2cccc(NS(C)(=O)=O)c2)n1,33.8%,"1 µM [rising, full curve, poor fit]","0.891 µM [rising, full curve, poor fit]",37.3%
COc1ccc(-n2c(=O)c(-c3cccs3)nc3cnc(Oc4ccccc4)nc32)cc1,10.2%,"7.08 µM [rising, single point]","7.94 µM [rising, single point]",8.33%
CN(C)c1ncc2nc(-c3ccccc3)c(=O)n(C3CC3)c2n1,21.3%,"1.58 µM [rising, partial curve]","0.708 µM [rising, full curve, poor fit]",27.8%
CC(=O)NCCNc1nc(-c2c(C)noc2C)nc2ccccc12,37.2%,"6.31 µM [rising, full curve]","3.98 µM [rising, full curve]",43.6%
c1ccc2c(N3CCOCC3)nc(-c3ccoc3)nc2c1,27.5%,"3.16 µM [rising, full curve, poor fit]","2.82 µM [rising, full curve]",35.2%
O=c1c(CCc2ccccc2)nc2cnc(N3CCNCC3)nc2n1Cc1cccs1,30%,"5.62 µM [rising, partial curve]","5.01 µM [rising, partial curve]",38.7%
COCCn1c(=O)c(-c2cc(F)cc(F)c2)nc2cnc(Nc3cccc(OC)c3)nc21,32.9%,"1.78 µM [rising, partial curve, poor fit]","0.0224 µM [rising, full curve, poor fit]",21.7%
Cc1ccc(CC(Cc2nc3ccccc3[nH]2)c2nc3ccccc3[nH]2)cc1 (stereo not drawn),84.6%,"2.82 µM [rising, full curve]","2.24 µM [rising, full curve]",105%
CNc1ncncc1-c1ccccc1C(F)(F)F,38%,"1 µM [rising, partial curve]","7.08 µM [rising, partial curve, poor fit]",46.6%
COc1cc2ccc(=O)oc2cc1O,62.5%,"31.6 µM [rising, partial curve, poor fit]","35.5 µM [rising, partial curve, poor fit]",78.7%
O=C(O)c1ccc2c3c1cccc3c(=O)n1c3ccccc3nc21,58%,"3.55 µM [rising, full curve, poor fit]","3.98 µM [rising, partial curve, poor fit]",77%
COCCn1c(=O)c(-c2ccc(OC)cc2)nc2cnc(OCc3ccccc3)nc21,30.5%,"4.47 µM [rising, partial curve]","2.24 µM [rising, partial curve]",35%
Nc1[nH]nc2nc3ccccc3nc12,81.1%,"5.01 µM [rising, full curve]","4.47 µM [rising, full curve]",98.6%
COc1cc(OC)c2c(=O)c(-c3ccccc3)coc2c1,23.8%,"3.55 µM [rising, partial curve, poor fit]","3.16 µM [rising, full curve, poor fit]",33.9%
NCCc1cnc[nH]1,29.4% and 65.4%,"15.8 µM [falling, partial curve, poor fit]","39.8 µM [rising, single point] and 14.1 µM [falling, partial curve, poor fit]",37% and 66.5%
COc1ccc(-n2c(=O)c(C)nc3cnc(Nc4cccc(OC)c4)nc32)cc1,11.2%,"2 µM [rising, partial curve, poor fit]","2.24 µM [rising, partial curve, poor fit]",20.3%
